# Data taken from the supplement of paper PMC3334620.
# In all, about 33,000 sequences were measured (“E-score (-0.5 to 0.5)”: median about -0.012, highest 2% from about 0.29 on). The list shows a part of the results.
# Biological target: T1, Ybr033w (UniProt P38073)
# T1 sequence: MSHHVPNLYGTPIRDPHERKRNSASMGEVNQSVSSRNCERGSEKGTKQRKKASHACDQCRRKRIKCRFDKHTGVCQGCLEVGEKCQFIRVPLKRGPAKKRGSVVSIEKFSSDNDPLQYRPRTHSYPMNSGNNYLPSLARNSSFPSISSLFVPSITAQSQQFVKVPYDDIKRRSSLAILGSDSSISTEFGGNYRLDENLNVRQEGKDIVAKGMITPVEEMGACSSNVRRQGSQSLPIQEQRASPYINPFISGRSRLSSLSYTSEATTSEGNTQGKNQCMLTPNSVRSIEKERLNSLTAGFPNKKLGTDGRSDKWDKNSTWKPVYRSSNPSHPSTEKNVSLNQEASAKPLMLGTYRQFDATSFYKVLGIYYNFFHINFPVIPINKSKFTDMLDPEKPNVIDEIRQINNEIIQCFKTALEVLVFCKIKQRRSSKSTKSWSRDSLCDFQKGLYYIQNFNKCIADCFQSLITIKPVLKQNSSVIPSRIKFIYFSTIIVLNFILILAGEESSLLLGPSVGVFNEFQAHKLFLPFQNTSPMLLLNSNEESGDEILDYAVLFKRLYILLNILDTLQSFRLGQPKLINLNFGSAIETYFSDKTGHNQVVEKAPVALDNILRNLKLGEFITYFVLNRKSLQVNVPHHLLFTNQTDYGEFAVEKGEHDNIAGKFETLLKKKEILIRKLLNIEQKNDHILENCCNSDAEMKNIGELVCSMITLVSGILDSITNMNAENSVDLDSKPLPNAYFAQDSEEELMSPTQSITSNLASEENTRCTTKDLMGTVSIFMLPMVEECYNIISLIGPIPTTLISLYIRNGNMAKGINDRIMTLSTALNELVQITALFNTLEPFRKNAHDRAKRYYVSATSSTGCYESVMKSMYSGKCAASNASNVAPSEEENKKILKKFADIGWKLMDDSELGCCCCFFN
# Test: PBM E-score (8-mer binding enrichment) (E-score (-0.5 to 0.5)); higher = stronger / more preferred TF binding; most listed sequences are background and not binding sites
# Conditions: protein concentration: 200 nM; construct: GST-full length
# How it was run: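 Masliner-normalised scans of fluorescent anti-GST signal were the basis for scoring. That signal came from GST-tagged yeast transcription factors applied at about 100-200 nM to double-stranded universal all-10-mer Agilent arrays on fresh or once-stripped slides. Each ungapped eight-base word, pooled with its reverse complement, received an E-score from the Universal PBM Analysis Suite.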
row,Sequence,PBM E-score
1,GGCAACCC,-0.094
2,CATGGTCG,-0.196
3,AACACATT,0.0531
4,CAACACTA,0.186
5,ACTATGCT,0.117
6,GAAATGGA,-0.0884
7,AGTTGTCG,-0.0295
8,GATGCATC,0.0586
9,AAAGGCCC,-0.105
10,AGCATTCA,0.117
11,ATCCATAA,0.189
12,ACGGTAAT,0.0536
13,AGTGATTC,-0.0187
14,ACATCAGA,0.0618
15,CAGTGAAG,0.0193
16,CCCCTGGC,-0.284
17,CGAGATGA,-0.0522
18,AACCTGGC,-0.0474
19,ATCTTGGG,-0.0165
20,GTCCCAAC,-0.194
21,GACTAATC,0.0103
22,GGTCACAA,-0.0218

row,Sequence,PBM E-score
1,GTAGAGTA,0.105
2,CAAGGTGC,-0.185
3,ACTAATTC,0.221
4,ACCGAATG,-0.0209
5,GCAACACA,-0.127
6,AACCATGT,0.061
7,AGTCTAAC,-0.147
8,AAACGCCG,0.0154
9,GAGAGGGC,-0.383
10,ACCTCTGA,0.0287
11,CCGTCAAG,-0.0253
12,CAACGGGG,-0.22
13,ATCACCAT,0.192
14,AACAATAA,0.258
15,CCCAAGGA,-0.0564
16,CTCGCCAC,-0.0478
17,CATTTAAC,0.169
18,ATTCACCG,0.166
19,GTATCGAC,0.0715
20,GTCCTACA,0.015
21,AGCATAAG,0.0555
22,GGACGTTA,0.086

row,Sequence,PBM E-score
1,ACTTGATC,0.22
2,ATCACATC,0.0917
3,AATCTGTA,0.13
4,GGTATCCA,0.0244
5,AAACATCT,0.087
6,AGTAATCG,0.0662
7,ACATCCTG,0.0592
8,GTTGGTCA,0.106
9,AACTAGCA,0.114
10,AGATCTGC,0.00237
11,AGACTGCT,-0.128
12,GCGTTCCC,-0.237
13,ACCATCAC,0.0848
14,GCGAACTA,0.00407
15,AGCATTGC,-0.0135
16,CGACCGGC,-0.116
17,ACGTTTCA,0.0374
18,CGGCAAAG,-0.15
19,GGGTACAA,0.0163
20,AGCCTGTA,-0.0394
21,GCGTAAGA,0.0377
22,AGACGTGC,-0.0692

row,Sequence,PBM E-score
1,AACGGAGG,-0.218
2,AATAGGCG,0.048
3,GACTACCC,-0.0847
4,AAAATCCA,0.339
5,CGCCTACC,-0.167
6,AACTCTGT,0.00059
7,GTAACATA,0.155
8,CCACTATC,0.0512
9,GTTTGCTA,0.118
10,GAACTTAA,0.155
11,TTAACGAA,0.296
12,AGGCACGC,-0.155
13,GTATGACA,0.112
14,ATGAGAGC,-0.194
15,ATCATTGA,0.237
16,CTTCCGCC,-0.0511
17,CATAGTAC,0.0737
18,GGTTCCGA,0.019
19,GAACCCTC,-0.236
20,CAGTTTCA,0.0567
